Laboratory results from PubChem BioAssay AID1745845 (National Center for Advancing Translational Sciences (NCATS), 2022).
“And” between values parts separate entries of the source, which are not always exact repeats. Equal entries are not always repeated. Among all 360,000 compounds or so, about 2,600 (0.72%) were called active. Inconclusive means that the source gave no clear call. Such entries were picked first, then a sample of the others. Calls come from the whole dose curve; as a rule, active = well fitted inhibition curve with a large enough effect; inconclusive = small, poorly fitted or top-dose-only effect; inactive = no such curve, though single readings can be large or run the other way. Potencies beside an inconclusive call are fits to weak or partial responses and may not hold up.

Experiment: Primary qHTS for Inhibitors of ATXN expression; note: nearly all actives have a fitted effect of over 55% in size
Conditions: HEK-293 ATXN2-luciferase reporter, luminescence, 24 h; activity change, negative = inhibition: at 57 µM (top of the series)
Summary of the method: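 qHTS (up to 57 uM final) was run with 24 h compound exposure of reporter cells at 37 °C. Each well was multiplexed: SteadyGlo luminescence measured ATXN2-luciferase expression after a fluorogenic Gly-Phe-AFC viability readout (25 uM final).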
% is set by controls: 0 for no effect and ±100 for the full control effect; potency is the fitted concentration of half-maximal effect; tags give direction and shape of the fitted curve.

Compound	Potency	activity change, negative = inhibition
NC1(C(=O)O)CSSC1	inconclusive: 39.8 µM [inhibitor, single point]	–
CC1=CC(C)(C)N2C(=O)C3(C(C#N)=C(N)Oc4cc(O)ccc43)c3c(C)c(C)cc1c32 (stereo unspecified)	inconclusive: 28.2 µM [inhibitor, single point]	–
COc1ccc(C2=Nn3c(nnc3-c3ccccc3C(F)(F)F)SC2)cc1OC1CCOC1 (stereo unspecified)	–	inactive: -28.3%
Cc1ccc(CN2CCN(C(=O)c3ccco3)CC2)cc1	–	inactive: -6.59%
Clc1cccc(N2CCN(Cc3ccc(Br)o3)CC2)c1	–	inactive: 81.8%
Nc1nnnn1/N=C/c1ccc(N2CCCCC2)c([N+](=O)[O-])c1	–	inactive: 31.3%
COc1ccc(CCNC(=O)CN(c2ccccc2OC)S(=O)(=O)c2ccc(C)cc2)cc1	inconclusive: 39.8 µM [inhibitor, partial curve, poor fit]	–
Cc1[nH]c2c(ccc3ccccc32)c1C1C(CCN)C1(C)C (stereo unspecified)	inconclusive: 31.6 µM [inhibitor, single point]	–
COc1ccc(OCC(O)Cn2c(=N)n(Cc3ccccc3)c3ccccc32)cc1 (stereo unspecified)	inconclusive: 1 µM [inhibitor, full curve, poor fit]	–
Cc1ccc(NC(=O)CNCC(c2ccccc2)N(C)C)cc1F (stereo unspecified)	–	inactive: -6.58%
COc1cc(C(=O)O/N=C2/C=CC(=O)C(C)=C2C)cc(OC)c1OC	inconclusive: 39.8 µM [inhibitor, single point]	–
Cc1ccc(S(=O)(=O)Nc2ccc3c(c2)nc2n3CCN(Cc3ccccc3)C2)cc1	inconclusive: 39.8 µM [inhibitor, single point]	–
c1ccc(CNc2nc(-c3ccccc3)nc3ccccc23)cc1	–	inactive: -0.883%
CCC(=O)c1ccc2c(c1)N(CCCN(C)C)c1ccccc1S2	inactive and inconclusive: 35.5 µM [inhibitor, partial curve, poor fit]	–
CCN(CC)CCNC(=O)c1ccc(N2CCCCC2)c(NS(=O)(=O)c2ccc(C)cc2)c1	inconclusive: 25.1 µM [inhibitor, single point]	–
COCCCNC(=S)NNC(=O)c1ccccn1	inconclusive: 26.7 µM [inhibitor, partial curve]	–
CCOC(=O)c1nnn(-c2nonc2N)c1CS(=O)(=O)c1ccccc1	inconclusive: 31.6 µM [inhibitor, partial curve, poor fit]	–
COc1cccc(-c2sc3ccccc3c2-c2ccc(OCCN(C)C)cc2)c1	active: 22.4 µM	–
O=C(Nc1ccc(C(F)(F)F)cc1)c1cc(S(=O)(=O)NC2CCCCCC2)ccc1F	active: 31.6 µM	–
Cc1ccc(NC(=O)CSc2ncnc3ccccc23)cc1S(=O)(=O)N1CCCCC1	inconclusive: 37.7 µM [inhibitor, single point]	–
COc1ccc(C(=O)Cn2nc(CNc3ccc(Br)cc3)[n+]3c2CCCCC3)cc1	inconclusive: 23.8 µM [inhibitor, partial curve]	–
CCOC(=O)C1(CCOc2ccccc2)CCN(Cc2cc(OC)c3c(c2)OCO3)CC1	inconclusive: 11.2 µM [inhibitor, partial curve, poor fit]	–

Compound	Potency	activity change, negative = inhibition
CCCCn1c(=O)n(Cc2ccccc2F)c(=O)c2[nH]c(Cc3ccc(NC(C)=O)cc3)nc21	inconclusive: 6.85 µM [inhibitor, partial curve, poor fit]	–
O=C(CN(Cc1ccccc1)C(=O)CCl)c1cccc(Br)c1	active: 22.4 µM	–
Cc1cc(C)nc(SCC(=O)Nc2ncc(Cc3ccc(Cl)c(Cl)c3)s2)n1	inconclusive: 39.8 µM [inhibitor, single point]	–
CCC[C@@H](CN[C@@H](CNC)[C@H](C)CC)NCC1CCC(C(C)(C)C)CC1 (stereo partly specified)	inconclusive: 31.6 µM [inhibitor, single point]	–
CC[N+](CC)(CC#Cc1ccccc1)CC#Cc1ccccc1	–	inactive: -35.1%
Nc1ccc(-c2ccc3ncc4ccc(=O)n(-c5cccc(C(F)(F)F)c5)c4c3c2)cn1	inconclusive: 0.193 µM [inhibitor, full curve]	–
CC(=O)N1CCN(c2ccc(Nc3ncnc4c3oc3ccccc34)cc2)CC1	inconclusive: 39.8 µM [inhibitor, single point]	–
CCN(C(=O)COC(=O)c1ccccc1Cc1ccccc1)c1c(N)n(Cc2ccccc2)c(=O)[nH]c1=O	inconclusive: 15.8 µM [inhibitor, single point]	–
O=C(Nc1cnn(Cc2ccc(Cl)cc2Cl)c1)c1cc(-c2cccs2)on1	inconclusive: 12.6 µM [inhibitor, partial curve]	–
COc1ccc(CCNc2oc(COc3ccc(Br)cc3)nc2C#N)cc1OC	inconclusive: 31.6 µM [inhibitor, single point]	–
Cc1c(N/N=C(\C#N)C(=O)c2ccccc2)c(=O)n(-c2ccccc2)n1C	active: 14.1 µM	–
Cc1oc2c(c1C(=O)N1CCOCC1)C(=O)c1ccccc1C2=O	inconclusive: 4.47 µM [inhibitor, single point]	–
Cc1nn2c3c(cnc2c1-c1ccccc1)C(=O)CC(c1ccco1)C3 (stereo unspecified)	–	inactive: 13.6%
CC(=O)c1ccc(N2CCN(C(=O)C3CCN(S(=O)(=O)c4ccc(Br)s4)CC3)CC2)cc1	inconclusive: 14.1 µM [inhibitor, partial curve, poor fit]	–
CCc1ccc(NC2=CC(=O)C(=O)c3ccccc32)cc1	inconclusive: 31.6 µM [inhibitor, partial curve, poor fit]	–
CC(C)CCN(C(=O)Cc1ccc(Cl)c(Cl)c1)c1c(N)n(Cc2ccccc2)c(=O)[nH]c1=O	inconclusive: 9.47 µM [inhibitor, partial curve, poor fit]	–
Cc1ccc(N2C(=O)C(CC(=O)Nc3ccc(F)cc3)N(CCC3=CCCCC3)C2=O)cc1 (stereo unspecified)	inconclusive: 39.8 µM [inhibitor, single point]	–
CCCCNC(=O)c1ccc(Cn2c(=S)[nH]c3c([nH]c4ccc(OC)cc43)c2=O)cc1	inconclusive: 22.4 µM [inhibitor, single point]	–
O=C(c1ccc2c(c1)N(Cc1ccc(Cl)cc1)C(=O)c1ccccc1S2(=O)=O)N1CCCCCC1	inconclusive: 28.2 µM [inhibitor, partial curve, poor fit]	–
COc1ccc(OC)c(S(=O)(=O)NCCc2sc(-c3cccnc3)nc2C)c1	–	inactive: 20.7%
Cc1csc(SCC(=O)c2c(N)n(C)c(=O)n(C)c2=O)n1	–	inactive: 25.1%
COc1ccccc1C/C(N)=N/OC(=O)c1cccs1	–	inactive: -8.11%

Compound	Potency	activity change, negative = inhibition
CC(C)(C)NNC(=S)Nc1cccc(C(F)(F)F)c1	inconclusive: 7.94 µM [inhibitor, full curve]	–
COc1ccc(CN2CCN(C3CCOCC3)CC2CCO)c(C)c1C (stereo unspecified)	–	inactive: -7.93%
C/C=C\C=C\C(=O)Nc1cccc(C2=NOC3(C2)C[C@H](C(N)=O)N(C(=O)c2ccccc2C(=O)c2ccccc2)C3)c1 (stereo partly specified)	inconclusive: 17.8 µM [inhibitor, partial curve, poor fit]	–
O=[N+]([O-])c1cccnc1N1CCC(c2cc(-c3ccc(Cl)cc3Cl)n[nH]2)CC1	inconclusive: 25.1 µM [inhibitor, single point]	–
O=C(CN1C2=NCCCN2c2ccccc21)c1ccc(Br)s1	inconclusive: 17.8 µM [inhibitor, partial curve]	–
O=C(Nc1ccc2c(c1)OCO2)c1cc(C2CCCCN2C(=O)CCCc2ccccc2)on1 (stereo unspecified)	–	inactive: 13.7%
CN(C)S(=O)(=O)c1cccc(C(=O)Nc2ccccc2Cl)c1	–	inactive: 15.8%
COC(=O)c1ccccc1NC(=O)CN(C)S(=O)(=O)c1cc(C)ccc1OC	inconclusive: 35.5 µM [inhibitor, partial curve, poor fit]	–
O=C(c1ccccc1)N1CCN(CCc2ccccn2)CC1	inconclusive: 1.12 µM [inhibitor, partial curve, poor fit]	–
CCOC(=O)c1c(CN2CCN(CCO)CC2)n(-c2ccccc2)c2cc(Br)c(O)cc12	inconclusive: 17.8 µM [inhibitor, partial curve, poor fit]	–
Cc1ccc(CCNC(=O)c2cc(S(=O)(=O)N3CCCC3)cn2C)cc1	–	inactive: -15.1%
CCOC(=O)C1=C(CSc2nc3ccccc3s2)NC(=O)NC1c1ccc(OC)cc1 (stereo unspecified)	inconclusive: 17.8 µM [inhibitor, partial curve]	–
O=[N+]([O-])c1ccc(S(=O)Cc2ccccc2)c([N+](=O)[O-])c1 (stereo unspecified)	inconclusive: 37.7 µM [inhibitor, single point]	–
CC(NC(=S)NCCc1ccccc1)C(c1cccs1)N1CCN(Cc2ccccc2)CC1 (stereo unspecified)	inconclusive: 37.7 µM [inhibitor, single point]	–
CCCC/C=C1/CCC(CN(C)C)C1=O (stereo unspecified)	inconclusive: 37.7 µM [inhibitor, single point]	–
N#CC(C#N)=C(Nc1ccc(F)cc1)SCc1cccc(Br)c1	inconclusive: 11.2 µM [inhibitor, partial curve]	–
Cc1ccc(NC(=O)C2(C)CCN2CCc2ccccc2)cc1 (stereo unspecified)	–	inactive: -3.12%
FC(F)(F)c1cnc(Sc2nnc(-c3cccs3)n2CC2CCCO2)c(Cl)c1 (stereo unspecified)	–	inactive: 2.46%
CCCCNc1c(-c2ccc(OC)c(Sc3ccc(OC)cc3)c2)nc2cnccn12	inconclusive: 31.6 µM [inhibitor, single point]	–
C=CCn1nc(C(=O)N2CCOCC2)cc1-c1sc(NC(=O)c2ccccc2)nc1C	inconclusive: 20 µM [inhibitor, partial curve, poor fit]	–
COC(=O)c1ccc(NC(=O)C(=O)NCCc2csc(-c3ccc(F)cc3)n2)cc1	–	inactive: -8.18%
O=C(CN1C(=O)c2ccccc2S1(=O)=O)c1cccc(Br)c1	inconclusive: 2.82 µM [inhibitor, partial curve, poor fit]	–
